In the RNAGym collection of RNA variant scans (doi:10.1101/gad.245936.114):
Variants at the background level are over-represented here.

B1: tRNA (parent)
chain: CUCUCGGUAGCCAAGUUGGUUUAAGGCGCAAGACUUUAAUUUAUCACUACGAAAUCUUGAGAUCGGGCGUUCGACUCGCCCCCGGGAGAUUUUUUCCUCGAGCAA

Variants of: B1
Assay: nonsense suppression (GFP-seq) (ratio to wild type); higher = more function; SUP4oc tRNA, yeast GFP reporter sort-seq
Outline: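 Yeast were grown in raffinose/galactose medium with 80 mg/L adenine, each strain bearing a genome-integrated ochre-suppressor tRNA variant from a ~3% random-mutation library, a galactose-driven GFP ochre reporter, and RFP. After sorting into GFP/RFP bins, every bin was sequenced on an Illumina platform at phred ≥30. The GFPSEQ value, a measure of nonsense suppression, is the weighted bin median GFP/RFP relative to the unmutated parent tRNA, using each variant's estimated cell share per bin as the weight. Only variants with ≥100 reads and ≥30 cells were included.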
With G10A U21G A31C the nonsense suppression was ≤ 0.026. With G10C G88A the nonsense suppression was ≤ 0.026. In the case of G10A G32U U55A, the nonsense suppression is reported as ≤ 0.026. In the case of G10C, the nonsense suppression is reported as ≤ 0.026. With G10A the nonsense suppression was ≤ 0.026. With A9U U16A C29U A31U A33G A62C the nonsense suppression was ≤ 0.026. In the case of G10A G84U, the nonsense suppression is reported as ≤ 0.026. With G10C C72A the nonsense suppression was ≤ 0.026. In the case of G10A U20A G86U, the nonsense suppression is reported as ≤ 0.026. With G10C U21C A60C the nonsense suppression was ≤ 0.026. For G10C G28U C75G, the nonsense suppression was ≤ 0.026. For G10A U55C A60G, the nonsense suppression was ≤ 0.026. With G10C G85U the nonsense suppression was ≤ 0.026. In the case of G10A C27G G32U C56U, the nonsense suppression is reported as ≤ 0.026. For G10C A62G, the nonsense suppression was ≤ 0.026. In the case of A9U G67C, the nonsense suppression is reported as ≤ 0.026. In the case of A9U G32A G66C, the nonsense suppression is reported as ≤ 0.026. With G10A G18C A30U the nonsense suppression was ≤ 0.026. In the case of G10C G61A U70G C77U G88A, the nonsense suppression is reported as ≤ 0.026. For A9U U57G G65C C80A, the nonsense suppression was ≤ 0.026. In the case of G10A A62U, the nonsense suppression is reported as ≤ 0.026. In the case of A9U U20G U21C, the nonsense suppression is reported as ≤ 0.026. With A9U U20C G65A the nonsense suppression was ≤ 0.026. With A9U G66U A74G the nonsense suppression was ≤ 0.026. With G10C C82A the nonsense suppression was ≤ 0.026. In the case of G10A U58G G85A G86A, the nonsense suppression is reported as ≤ 0.026. For G10A U17A U58A U71C, the nonsense suppression was ≤ 0.026. With G10C C12U the nonsense suppression was ≤ 0.026. In the case of A9U U21G A54C, the nonsense suppression is reported as ≤ 0.026. For G10C A62U G67A G73A, the nonsense suppression was ≤ 0.026. With G10C C11U U20C C64U the nonsense suppression was ≤ 0.026. For G10C G15U A23U, the nonsense suppression was ≤ 0.026. In the case of G10A A60C G66C G78A, the nonsense suppression is reported as ≤ 0.026. In the case of G10A U58A C80A, the nonsense suppression is reported as ≤ 0.026. With G10A C29G A54G the nonsense suppression was ≤ 0.026. For G10A C11G, the nonsense suppression was ≤ 0.026. With G10A C11A the nonsense suppression was ≤ 0.026. In the case of G10C C12A C82G, the nonsense suppression is reported as ≤ 0.026. With G10C G15U G18C A54G the nonsense suppression was ≤ 0.026. For G10A A13U U57A, the nonsense suppression was ≤ 0.026. A9U G61A gave a nonsense suppression of 0.195. With G10A G15C A24U A54U A87U the nonsense suppression was ≤ 0.026. With A9U U20C A30C U71G the nonsense suppression was ≤ 0.026. In the case of G10A A62C A87G, the nonsense suppression is reported as ≤ 0.026. For G10C C11U C72A, the nonsense suppression was ≤ 0.026. With G10C G15U A31U A87C the nonsense suppression was ≤ 0.026. For G10C U57C C64A C72U, the nonsense suppression was ≤ 0.026. In the case of G10A A60U C68A, the nonsense suppression is reported as ≤ 0.026. With G10A U21G C68U the nonsense suppression was ≤ 0.026. For G10C A30G A60U, the nonsense suppression was ≤ 0.026. In the case of G10A C34A, the nonsense suppression is reported as ≤ 0.026. With G10C C29U G86A the nonsense suppression was ≤ 0.026. With G10A C72A C80A the nonsense suppression was ≤ 0.026. With A9U U57A the nonsense suppression was ≤ 0.026. With G10A C12U C34A A74U the nonsense suppression was ≤ 0.026. With A9U G28U U76C G78U C81U the nonsense suppression was ≤ 0.026. With G10C G18U C27G the nonsense suppression was ≤ 0.026. With G10A A60G C82U the nonsense suppression was ≤ 0.026. In the case of A9U U21C G67C C79G, the nonsense suppression is reported as ≤ 0.026. With A9U G59U the nonsense suppression was ≤ 0.026. In the case of A9U U20C A23C G59U G66A, the nonsense suppression is reported as ≤ 0.026. In the case of G10A G19A G32C C79G C83U, the nonsense suppression is reported as ≤ 0.026. With G10A U16G A24U G59U G69A the nonsense suppression was ≤ 0.026. With G10C G59A G78C A89U the nonsense suppression was ≤ 0.026. For G10A A23U G67C G86A, the nonsense suppression was ≤ 0.026. In the case of A9U U20C G25U U71A, the nonsense suppression is reported as ≤ 0.026. For A9U G78A, the nonsense suppression was 0.0365. In the case of G10C A14G, the nonsense suppression is reported as ≤ 0.026. For G10A C56U G73A, the nonsense suppression was ≤ 0.026. In the case of G10C C27U, the nonsense suppression is reported as ≤ 0.026. For G10C C27G C29U U63C, the nonsense suppression was ≤ 0.026. With G10C U17C the nonsense suppression was ≤ 0.026. For G10C U17A, the nonsense suppression was ≤ 0.026. In the case of G10A U57C U58C G85C, the nonsense suppression is reported as ≤ 0.026. In the case of A9U G59U C81G, the nonsense suppression is reported as ≤ 0.026. With G10C C29G C79U the nonsense suppression was ≤ 0.026. For A9U U20G, the nonsense suppression was 0.12. For A9U G69U, the nonsense suppression was ≤ 0.026. In the case of G10A C75G, the nonsense suppression is reported as ≤ 0.026. For G10A U17G A33U, the nonsense suppression was ≤ 0.026. For G10C G19U G59U C79G, the nonsense suppression was ≤ 0.026. In the case of G10C G61U G69C, the nonsense suppression is reported as ≤ 0.026. In the case of G10A G78U A89C, the nonsense suppression is reported as ≤ 0.026. For A9U U57A U63C, the nonsense suppression was ≤ 0.026. With G10A C80U the nonsense suppression was ≤ 0.026. In the case of G10A C77U, the nonsense suppression is reported as ≤ 0.026. For A9U U16A, the nonsense suppression was 0.13. In the case of A9U G67A C79G, the nonsense suppression is reported as ≤ 0.026. In the case of G10A U57G G61A G66U, the nonsense suppression is reported as ≤ 0.026. With A9U G25C G66U G86C the nonsense suppression was ≤ 0.026. With G10C G67C C80G A87U the nonsense suppression was ≤ 0.026. In the case of G10C C34G, the nonsense suppression is reported as ≤ 0.026. For G10C C34A, the nonsense suppression was ≤ 0.026. For G10A C11U G26U, the nonsense suppression was ≤ 0.026. With G10C A54G the nonsense suppression was ≤ 0.026. For G10C C11U U22C A31C G85C, the nonsense suppression was ≤ 0.026. For G10A C34G U70C, the nonsense suppression was ≤ 0.026. With G10C G32U the nonsense suppression was ≤ 0.026. In the case of G10C G32C, the nonsense suppression is reported as ≤ 0.026. With G10A A60G U63G U76A C80G A89G the nonsense suppression was ≤ 0.026. In the case of G10C A89G, the nonsense suppression is reported as ≤ 0.026. In the case of G10A G66U C82G, the nonsense suppression is reported as ≤ 0.026. In the case of G10A U16C U17G, the nonsense suppression is reported as ≤ 0.026. In the case of G10A C27G U57A, the nonsense suppression is reported as ≤ 0.026. In the case of G10C G61C U63A, the nonsense suppression is reported as ≤ 0.026. With A9U U76A the nonsense suppression was ≤ 0.026. In the case of G10C G28U C29U, the nonsense suppression is reported as ≤ 0.026. With A9U G61U G73C the nonsense suppression was ≤ 0.026. With A9U U21A G65C the nonsense suppression was ≤ 0.026. For G10A G61A C81G A89G, the nonsense suppression was ≤ 0.026. For G10A A23U A60C G61C, the nonsense suppression was ≤ 0.026. For G10A U58G U76G, the nonsense suppression was ≤ 0.026. In the case of G10C A60U C64G, the nonsense suppression is reported as ≤ 0.026. For G10A U57A, the nonsense suppression was ≤ 0.026. With G10C G19U C27U G67C the nonsense suppression was ≤ 0.026. In the case of A9U U16A C27A C56U G78A, the nonsense suppression is reported as ≤ 0.026. For G10C A74C, the nonsense suppression was ≤ 0.026. In the case of G10A U16G A54C, the nonsense suppression is reported as ≤ 0.026. With G10C G19A U63C the nonsense suppression was ≤ 0.026. With G10C U22C C34U the nonsense suppression was ≤ 0.026. In the case of G10C G69C U71G, the nonsense suppression is reported as ≤ 0.026. In the case of G10C G61U A74U, the nonsense suppression is reported as ≤ 0.026. For A9U G88C, the nonsense suppression was ≤ 0.026. With G10A U20G C68A the nonsense suppression was ≤ 0.026. In the case of A9U U21A A54G G69U U76G, the nonsense suppression is reported as ≤ 0.026. In the case of G10A C12G, the nonsense suppression is reported as ≤ 0.026. With G10A A31C the nonsense suppression was ≤ 0.026. With G10C A24U U55G A89U the nonsense suppression was ≤ 0.026. With G10C A23U U63A C68U the nonsense suppression was ≤ 0.026. For G10A U16G A23G G28U A33U, the nonsense suppression was ≤ 0.026. With G10C G84C the nonsense suppression was ≤ 0.026. In the case of G10C U17G A54U C75G C82U, the nonsense suppression is reported as ≤ 0.026. For A9U G32U C34A, the nonsense suppression was ≤ 0.026. In the case of G10A C11G G32A U35G, the nonsense suppression is reported as ≤ 0.026. With A9U G65U the nonsense suppression was ≤ 0.026. For G10C G15U U20C U57G U58G G65C G78A, the nonsense suppression was ≤ 0.026. In the case of G10A C11G G26C U57G U63A, the nonsense suppression is reported as ≤ 0.026. With G10C U20A U63C the nonsense suppression was ≤ 0.026. For G10A G15U A23U G25A G85C, the nonsense suppression was ≤ 0.026. In the case of A9U G19U C27U, the nonsense suppression is reported as ≤ 0.026. In the case of A9U G25U G26C C64A G65A G73A, the nonsense suppression is reported as ≤ 0.026. For G10A G66C, the nonsense suppression was ≤ 0.026. In the case of G10C C75U C83G G88C, the nonsense suppression is reported as ≤ 0.026. With G10C C64G the nonsense suppression was ≤ 0.026. For G10C G15U A31U, the nonsense suppression was ≤ 0.026. In the case of A9U U21C U55A, the nonsense suppression is reported as ≤ 0.026. In the case of G10C G28A A74C, the nonsense suppression is reported as ≤ 0.026. With G10C U20A A23G A31U the nonsense suppression was ≤ 0.026. In the case of A9U U22G G25U A33U, the nonsense suppression is reported as ≤ 0.026. With G10C A30C G66U the nonsense suppression was ≤ 0.026. In the case of G10C U21G C68G C82A, the nonsense suppression is reported as ≤ 0.026. For G10C G59A, the nonsense suppression was ≤ 0.026. With G10C G78A C79U A87C the nonsense suppression was ≤ 0.026. In the case of G10A A14C, the nonsense suppression is reported as ≤ 0.026. With G10C A24G G25C A33G the nonsense suppression was ≤ 0.026. For G10C C27A A62C, the nonsense suppression was ≤ 0.026. For G10A C11G A23G, the nonsense suppression was ≤ 0.026. In the case of G10C C77G, the nonsense suppression is reported as ≤ 0.026. With A9U U63G U76A the nonsense suppression was ≤ 0.026. With G10C C34G G65A the nonsense suppression was ≤ 0.026. For G10C G86A, the nonsense suppression was ≤ 0.026. With G10A U22C U57C the nonsense suppression was ≤ 0.026. In the case of G10A U63G, the nonsense suppression is reported as 0.0314. In the case of G10A U63A, the nonsense suppression is reported as ≤ 0.026. In the case of G10A U63C, the nonsense suppression is reported as ≤ 0.026. With G10A U58A A60U A62G C72A the nonsense suppression was ≤ 0.026. With G10C A87C A89U the nonsense suppression was ≤ 0.026.
